Test results published in the RNAGym collection of RNA variant scans (doi:10.7554/elife.90254).
The source gives no read counts; variants with many changes may rest on few reads.

B1: LINE1-mini (parent)
chain: GGCAGAGCUCAACACAGCGUGGCAAAGUGGCUGUGGCUAGACUGCC

Variants of: B1
Assay: self-cleavage, relative activity (ratio to wild type); higher = more cleavage; in vitro, sequencing; the parent is a self-cleaving ribozyme

Variant	self-cleavage
G5A A6U C10U G17C A24U	0.07
A4U U34C C37G	0.02
A4U G7U G21A G27C G36A	0.37
A4U G27A G29C C37G	0
A4U G21A G44A C46U	0.06
A4U G7A C8G G17A G40U	0.09
A4U G22C C23G G30A	0.12
A4U C15G C23U A26U	0.03
G5A A11C A14C G21U C31U	0.04
A4U C18A U32G G36A U38G	0.01
A4U C15G G29A G40U	0.09
G5A A12G U20C G36U	0.05
A4U G19A U34C	0.09
A4U G7A G33U G40U U43G C45A	0.07
G5A A24C G30A U32G G44A	0.02
A4U C18A C37A A39U	0.04
A4U C13U C18U U20C C23U	0.06
G5A A11C G29C	0.01
A4U U9C C10A G21U	0.03
A4U U20A G29U	0.09
A4U G5A A12G A24C	0.02
G5A A24G G35C	0.05
G5A A25U C31A A39U	0.03
A4U G5U C13U C18U C42U	0.03

Variant	self-cleavage
G5A A12U G19A G27A	0.1
A4U C15A G17C G22U G36C	0.04
A4U U9G G35U	0.09
A4U U9G G35C	0.03
G5A A14G U20A G30A G35U G36U C42U	0.02
A4U U38G C45U	0.21
A4U C15G G36C G44C C46U	0
A4U G35C C37G A39C	0.14
G5A A26C G30C A39U G44U	0.06
G5A A25G U34A G35C	0.01
G5A A6G C13A U20A C31U	0.03
G5A A12G C31G	0.04
A4U G22A A39C	0.07
A4U C15U C18A G19U C31U G44A C46U	0.03
A4U C18G G33A	0.01
G5A A6C G7U U43A	0.45
A4U G7U G17A G29A G35U U38C	0.15
A4U G27U G30U C31U G33U	0.07
A4U G5A U9A A14C	0.12
G5A A16U C45A	0.02
A4U C15A A26G	0.05
G5A A26G G29A G40A	0.1
G5A A11U C15A C18A G29U	0.02
A4U G17C G19A A41G	0.1

Variant	self-cleavage
A4U U20C A39G C45G	0.06
A4U C37A C42A	0.32
G5A A6U G19U U28A C37A	0.01
A4U U28G U32G	0
G5A A12G G17A C18G G33C	0.28
A4U G7A A11C A39C C42U	0.03
A4U G5C A6U	0.06
A4U C18G U20G U28C G44C	0
G5A A6U C8A C10A	0.06
A4U C23G C45A	0.04
A4U U20C A39C	0.03
G5A A12U A26C	0.17
A4U G22A G27C G36C	0.1
G5A A39C A41G	0.14
G5A A6G C10G C45A	0.01
A4U U28A G30C	0.26
A4U G21U U32C U34A C37A	0.05
A4U G7C A14G	0.12
A4U C15G A24C G33C	0.2
G5A A26C C31U G40A C42U	0.03
G5A A14C U20G C42U	0.05
G5A A16C C23A U32A G44A	0.02
G5A A26U G40U	0.02
G5A A6C G17A C23U G35A C37A A41C	0.02

Variant	self-cleavage
G5A A11G C15A	0.06
A4U G5A U20C	0.84
G5A A12C A26U G27U	0
A4U G7A C13A A14C G17A	0.09
G5A A25C U38G G44U	0.02
A4U G7C G17U G21C G35U A41G	0.05
A4U C13U C31G U43A	0.01
G5A A14G G19U C23G C45A	0.02
A4U G7U C15U	0.04
A4U C31G G40U C42G	0.02
G5A A25C G33U	0
G5A A11C U43A	0.02
G5A C8A A12U G17C A25G G35A	0.18
G5A A11C G36U	0
A4U G19A C37A	0.02
G5A A11C C13U U28C	0.05
G5A A16G G21A G22C C46U	0.03
A4U U9C C23A	0.1
A4U C15G A16G C18G G21U A26U G27U G40U C42A	0
A4U U28A U43C	0.11
G5A A12C G17A U28A G29A G40U C46A	0.03
G5A A12U G40C	0.01
A4U C18G G27C G35C G36U	0.28
A4U G7U G36U	0.01

Variant	self-cleavage
A4U G19A U38A	0.05
G5A A6G C18U G22U G29A U38G A39G G44C	0.01
A4U G5A C15A G27U	0.02
G5A C8A A16C G22A	0.24
G5A A6U A16U C18U G44A	0.08
G5A A6U C18G	0.1
G5A A16U G17A G40U	0.05
G5A A16U G27C C42U	0.07
A4U C31G A41U	0.01
G5A A6G U9A G36C C46G	0.02
G5A C8A C13U C15G U20A G21U	0.32
G5A A14G A16G C23G	0.01
A4U C15G G19A U43C G44A	0
A4U G5U U9A	0.12
A4U G36U C42G C46U	0.01
G5A A11G G21A	0.04
A4U G5U A12C G33U U43C	0.01
A4U U20G U34G	0.04
G5A A14C G21A G44C	0.02
G5A A12U U28G G30U C31A U32A	0.02
A4U C31U G40A	0.04
G5A A12C C31G G36C	0.03
A4U U20G G22C U38G	0.01
A4U C23U G33A	0.2

Variant	self-cleavage
A4U G30A G35U G44U	0.02
G5A C8A A16C U32A	0.14
A4U C37U U38C	0.01
G5A A6C C10G A24U A26C C42A	0.02
A4U G17U G19C A25G U34G	0.01
A4U G5A A6U G7U A26C G27U A41C	0.07
G5A A25U C31A	0.05
A4U U28A G29U	0.08
G5A A11G G35U A39U	0.01
G5A A11G C31A G35U	0.02
G5A A11C C13G G17A C31G A39C	0.01
A4U C18A A26U	0.11
A4U G5C A12G G36U G44U	0.04
G5A A6G G17A C18U C46G	0.04
A4U G7A G35U	0.39
G5A A26U C37A C45A	0.03
G5A A12C C31U U32G A41U	0.01
G5A A26G C31U	0.07
A4U G21C C45U	0.11
A4U C15A A26G U43A	0.01
A4U G5C C8A A11C A14C	0.02
G5A A26C A39U	0.07
G5A A6C C18U G44C	0.05
G5A A11C A16G U20G G22A	0.01

Variant	self-cleavage
G5A A26G G30U U38A	0.01
A4U G7A A24C G36C	0.06
A4U G7C A12G C13A C23G G30C G33U C42A	0.02
A4U U9G G17C C46A	0.1
A4U C13U U28A G35A	1.79
A4U G19A G29U	0.05
A4U G5C C31A U32G A39C G44U	0.02
G5A A11C G21U G33C	0.01
A4U G7U A16U G27U C37A	0.18
G5A A14U G21C	0.02
A4U G29A C42G	0.07
A4U G5U A25C	0.04
A4U G33U G36U	0.09
G5A A16U G27C C37A	0.1
A4U G21U C42U	0.03
G5A A25C C31G G35U	0.02
G5A A26U G35C A39C	0.2
A4U C37G U43G C46U	0.02
A4U C31A G40U	0.06
G5A A6G C8A U20C	0.11
G5A A11U G19C	0.04
G5A A12G G27C	0.04
G5A A11G A24U G40A	0.02
